# Source: the BET-seq Pho4 binding data (Le et al. 2018)
# Some of the results follow. Values were computed here from the reads of four pooled replicates and scatter widely.
# Target: T1, Pho4 (S. cerevisiae) (UniProt P07270)
# T1 sequence: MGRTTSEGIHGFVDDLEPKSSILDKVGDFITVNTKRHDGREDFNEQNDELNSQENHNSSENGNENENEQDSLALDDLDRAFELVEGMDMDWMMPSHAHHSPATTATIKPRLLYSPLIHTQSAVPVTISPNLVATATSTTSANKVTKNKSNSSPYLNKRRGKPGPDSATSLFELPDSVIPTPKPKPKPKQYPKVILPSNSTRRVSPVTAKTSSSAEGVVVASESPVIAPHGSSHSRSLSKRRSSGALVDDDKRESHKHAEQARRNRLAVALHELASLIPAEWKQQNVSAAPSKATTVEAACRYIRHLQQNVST
# Assay: relative binding free energy (BET-seq); higher = weaker binding
# Conditions: reference: library average
row,Sequence,relative binding free energy [kcal/mol]
1,TTGAACACGTGTTGCT,0.1
2,AATCGCACGTGCGGGT,-0.05
3,AAGATCACGTGTGTTA,0.11
4,ATAAGCACGTGTGGTG,0.02
5,TGCGTCACGTGATGAT,0.11
6,AGCGGCACGTGGTTTA,-0.22
7,TAGTTCACGTGATTTC,0.4
8,ATTTACACGTGTTCGG,0.14
9,TGGGGCACGTGTCTTG,-0.15
10,ATGCTCACGTGTTTTT,0.03
11,TTATACACGTGTGTAA,-0.05
12,CAGGTCACGTGTGTAG,0.15
13,GTCTACACGTGTTAGG,0.23
14,CATTACACGTGTAGGG,0.17
15,GTATGCACGTGTATTA,-0.09
16,GAGTTCACGTGGAATG,0.49
17,TGAGTCACGTGGGGAG,0
18,TCTAGCACGTGTAATT,0.18
19,AGGGGCACGTGCAGCG,-0.2
20,TTTTACACGTGGCCGG,-0.03
21,GCACTCACGTGGGGGT,0.08
22,AATCGCACGTGTTTGT,-0.06
23,TTTTGCACGTGGAGGA,0.01

row,Sequence,relative binding free energy [kcal/mol]
1,TAAGGCACGTGCGGTA,-0.28
2,TCGGACACGTGTGGGG,0.21
3,TCCTGCACGTGTGTAG,0.11
4,ACAGGCACGTGAGTTG,0.09
5,TTGAACACGTGGGATT,-0.01
6,ATGAGCACGTGGAGGA,0.02
7,GCTGTCACGTGGGTGG,0.07
8,GTTGGCACGTGATATG,-0.01
9,TGGAACACGTGATGTA,0.16
10,CGGGTCACGTGTTTGG,0.11
11,TGGGGCACGTGTTTGC,-0.09
12,TTTTACACGTGTAGGT,0.15
13,TCGATCACGTGTGTTA,0.23
14,TAGTACACGTGAGTAG,0.28
15,TGTGGCACGTGCTAGA,-0.19
16,TCGTACACGTGTCGTT,0.19
17,AGTTTCACGTGTATTG,0.14
18,TTAAGCACGTGGGCCG,-0.19
19,GAGGGCACGTGAAATG,0.26
20,ATACTCACGTGAGTTT,0.29
21,AAGTGCACGTGCGGGG,-0.09
22,TTGGGCACGTGACAGT,0.04
23,GGCTACACGTGTATGG,0.08

row,Sequence,relative binding free energy [kcal/mol]
1,TGGCGCACGTGGTGTG,-0.3
2,CTAGGCACGTGTGTAA,-0.09
3,CTGGTCACGTGGTGGG,0.14
4,TGAGGCACGTGATGTC,-0.02
5,CTGGGCACGTGAGTAG,0.12
6,CGGGTCACGTGTAATG,0.2
7,AGGAGCACGTGAGCTG,0.25
8,TGTTGCACGTGATTCG,0.2
9,ATTTGCACGTGGGCGT,-0.06
10,GGATTCACGTGAAAGT,0.53
11,GGATACACGTGGGATT,0.1
12,AGTTTCACGTGTAAAA,0.15
13,TGCGTCACGTGAATTG,0.24
14,TTATACACGTGGGACT,-0.07
15,GGATTCACGTGGGGGT,0.24
16,ATTTGCACGTGTATGC,-0.08
17,GAGTTCACGTGTAATG,0.39
18,AGGTTCACGTGGGGAG,0.21
19,GGGAGCACGTGAGGCG,0.05
20,TCTTACACGTGGTGGG,0.07
21,GTGTTCACGTGGGGTA,0.16
22,TGAGACACGTGGGGCC,0.04
23,AATTGCACGTGTAGTG,-0.02

row,Sequence,relative binding free energy [kcal/mol]
1,TATGTCACGTGATTGT,0.23
2,GTAGGCACGTGCAGGA,-0.14
3,AGTCTCACGTGAAGTT,0.45
4,GTTGCCACGTGCTGGT,0.01
5,GCGGGCACGTGTGTGC,-0.08
6,GGGGACACGTGGAAAG,0.23
7,GAGGTCACGTGGCATA,0.14
8,GTGTACACGTGGAGAA,0.12
9,TACGTCACGTGTGGTA,0.06
10,AATTACACGTGAATTG,0.24
11,TTTTTCACGTGAATGA,0.34
12,AACTACACGTGTGGTG,0.06
13,GAGTACACGTGTGTCG,0.21
14,TTGATCACGTGCGTAG,0.08
15,AGGTACACGTGGGTTC,0.09
16,GGCAGCACGTGAAGGT,0.07
17,TTTCGCACGTGCGTAG,-0.04
18,GGGGACACGTGATTCT,0.18
19,GGATGCACGTGGGGTG,-0.17
20,GGGCTCACGTGTATAT,0.36
21,TTGGGCACGTGGACAG,-0.14
22,ATGGGCACGTGCGGCT,-0.13
23,GGACGCACGTGGAATG,0.09

row,Sequence,relative binding free energy [kcal/mol]
1,TTAATCACGTGGCTGG,0.07
2,TTAGTCACGTGGTTCG,-0.02
3,GTTGACACGTGAGGCT,0.23
4,GGTTGCACGTGAAGCT,0.13
5,AGAATCACGTGTGTTT,0.15
6,CTCTACACGTGGGGTT,-0.02
7,GTGGCCACGTGAGAGT,0.16
8,TTAAGCACGTGACTTG,0.04
9,TGAGGCACGTGGACTT,0.04
10,ATGGTCACGTGGTGAA,-0.04
11,ATGCACACGTGGATGG,0.07
12,TTGGGCACGTGCTTGT,-0.14
13,GGCGGCACGTGTGAGC,0
14,GGTGCCACGTGGCCTG,0.05
15,TTTGCCACGTGGGTGG,-0.14
16,TGTACCACGTGTGCGG,-0.03
17,ATATACACGTGAATGG,0.19
18,ACGGACACGTGGGGCG,-0.16
19,TGATGCACGTGAGTTG,0.27
20,CGATACACGTGTGATG,0.19
21,GTGTTCACGTGATCAT,0.29
22,TCATTCACGTGGGGGG,0.24
23,TATTGCACGTGTTATA,-0.07
